In PubChem BioAssay AID624417 (National Center for Advancing Translational Sciences (NCATS), 2012):
Out of some 410,000 compounds screened, about 6,400 (1.6%) were called active. This list was built around the results that the source calls inconclusive (neither active nor inactive); the mix of calls is not that of the screen. The call rests on the fitted dose curve; in most records, active means well fitted inhibition curve with a large enough effect; inconclusive means small, poorly fitted or top-dose-only effect; inactive means no such curve, though single readings can be large or run the other way. No potency is given beside an inconclusive call; the fits are too rough.

Biological target: Glucagon-like peptide 1 receptor (Homo sapiens) (UniProt P43220)
Experiment: qHTS of GLP-1 Receptor Inverse Agonists (Inhibition Mode); further: nearly all actives have a fitted effect of over 55% in size
Conditions: HEK293 GLP-1R CRE-luciferase, luminescence, 24 h; Potency: GLP-1R form is constitutively active unless noted; series mostly up to 38.3 µM
Outline: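 HEK293 cells stably co-expressing a cAMP-responsive luciferase reporter and constitutively active GLP-1R were seeded, incubated 12 h, then exposed to compounds for 24 h at 37 C. Luminescence was read 12 min after detection reagent; inverse agonists lower signal.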
Potency means the concentration at half of the fitted maximal effect; tags describe the fitted curve by direction and shape.

UniProt P43220, sequence (P43220 whole entry, looked up): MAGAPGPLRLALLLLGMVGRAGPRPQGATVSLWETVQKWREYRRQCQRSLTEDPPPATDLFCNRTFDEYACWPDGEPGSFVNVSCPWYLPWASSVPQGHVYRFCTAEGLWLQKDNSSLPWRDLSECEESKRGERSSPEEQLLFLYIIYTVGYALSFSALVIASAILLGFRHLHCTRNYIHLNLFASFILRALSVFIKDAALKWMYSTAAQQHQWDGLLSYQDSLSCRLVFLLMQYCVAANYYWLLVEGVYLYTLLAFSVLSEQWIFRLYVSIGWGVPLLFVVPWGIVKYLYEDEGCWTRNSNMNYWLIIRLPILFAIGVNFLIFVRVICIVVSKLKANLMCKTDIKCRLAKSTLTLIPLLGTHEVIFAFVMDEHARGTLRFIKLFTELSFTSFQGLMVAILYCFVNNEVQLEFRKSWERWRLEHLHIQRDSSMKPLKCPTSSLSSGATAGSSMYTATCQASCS

Row | SMILES | Potency
1 | CN1CCN(c2cccc3c2C(=O)c2ccccc2C3=O)CC1 | inconclusive [inhibitor, single point]
2 | Cc1cccc(N2CCc3c2nc2ccccc2c3N)c1 | inconclusive [inhibitor, single point]
3 | Cc1cccc(OP(=O)(Nc2cccnc2)Oc2cccc(C)c2)c1 | inconclusive [inhibitor, single point]
4 | Cc1ccc(-c2nn(Cc3ccccc3)cc2C=O)cc1 | inconclusive [inhibitor, single point]
5 | COc1ccc(C(CNC(=O)Cc2ccc(Cl)c(Cl)c2)N2CCCCC2)cc1 (configuration not stated) | inconclusive [inhibitor, single point]
6 | COc1ccc(CN2Cc3cnnn3-c3ccccc3C2C)cc1 (configuration not stated) | inconclusive [inhibitor, single point]
7 | CC1C(c2cccs2)=[N+]([O-])C(C)(C(=O)c2ccc(F)cc2)N1O (configuration not stated) | inconclusive [inhibitor, full curve, poor fit]
8 | COc1ccc(-n2c(O)c(/C(C)=N/Nc3ccccc3)c(=O)[nH]c2=O)cc1 | inconclusive [inhibitor, full curve, poor fit]
9 | CCc1nc2c(OCc3ccc(C(F)(F)F)cc3)cccn2c1N(C)C(=O)C(C)C | inconclusive [inhibitor, partial curve, poor fit]
10 | O=C(Oc1ccc(Cl)c2cccnc12)N1CCCCCC1 | inconclusive [inhibitor, partial curve, poor fit]
11 | CCOc1cc2c(cc1OCC)-n1cccc1C(c1cccc(F)c1F)NC2 (configuration not stated) | inconclusive [inhibitor, single point]
12 | COC(=O)C1=C(c2ccc(OC(F)(F)F)cc2)C[C@@H]2CC[C@H]1N2C(=O)NCc1ccc(F)cc1 | inconclusive [inhibitor, partial curve, poor fit]
13 | O=C(Cn1c(NCCCl)nc2ccccc21)c1ccc(Br)cc1 | inconclusive [inhibitor, partial curve, poor fit]
14 | O=c1[nH]c(=S)[nH]c(O)c1N=Nc1cc(S(=O)(=O)Nc2ccc(Cl)cc2)ccc1Cl | inconclusive [inhibitor, single point]
15 | Cc1cc(OC(=O)N(C)C)nc(SCc2c(Cl)cccc2Cl)n1 | active: 10 µM
16 | CN1C(=O)NC(=O)/C(=C\C=C\c2ccccc2[N+](=O)[O-])C1=O | inconclusive [inhibitor, single point]
17 | O=C(CSc1nc2ccccc2[nH]1)NC1CCCc2ccccc21 (configuration not stated) | inconclusive [inhibitor, single point]
